# Results taken from paper PMC4336329 (PLoS ONE, 2015).
# About 14,000 (4.5%) of roughly 310,000 compounds showed an effect of 50% or more. The effect is printed as a negative number. The list shows a part of the results.
# Molecular target: human ether-à-go-go-related gene (hERG) potassium channel (human, UniProt Q12809)
# Assay: primary screen, population patch clamp on CHO cells stably expressing hERG
# 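Also: peak tail current of the secondary pulse compared with the same well before compound.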
# Chain of human ether-à-go-go-related gene (hERG) potassium channel (Q12809 whole entry, looked up): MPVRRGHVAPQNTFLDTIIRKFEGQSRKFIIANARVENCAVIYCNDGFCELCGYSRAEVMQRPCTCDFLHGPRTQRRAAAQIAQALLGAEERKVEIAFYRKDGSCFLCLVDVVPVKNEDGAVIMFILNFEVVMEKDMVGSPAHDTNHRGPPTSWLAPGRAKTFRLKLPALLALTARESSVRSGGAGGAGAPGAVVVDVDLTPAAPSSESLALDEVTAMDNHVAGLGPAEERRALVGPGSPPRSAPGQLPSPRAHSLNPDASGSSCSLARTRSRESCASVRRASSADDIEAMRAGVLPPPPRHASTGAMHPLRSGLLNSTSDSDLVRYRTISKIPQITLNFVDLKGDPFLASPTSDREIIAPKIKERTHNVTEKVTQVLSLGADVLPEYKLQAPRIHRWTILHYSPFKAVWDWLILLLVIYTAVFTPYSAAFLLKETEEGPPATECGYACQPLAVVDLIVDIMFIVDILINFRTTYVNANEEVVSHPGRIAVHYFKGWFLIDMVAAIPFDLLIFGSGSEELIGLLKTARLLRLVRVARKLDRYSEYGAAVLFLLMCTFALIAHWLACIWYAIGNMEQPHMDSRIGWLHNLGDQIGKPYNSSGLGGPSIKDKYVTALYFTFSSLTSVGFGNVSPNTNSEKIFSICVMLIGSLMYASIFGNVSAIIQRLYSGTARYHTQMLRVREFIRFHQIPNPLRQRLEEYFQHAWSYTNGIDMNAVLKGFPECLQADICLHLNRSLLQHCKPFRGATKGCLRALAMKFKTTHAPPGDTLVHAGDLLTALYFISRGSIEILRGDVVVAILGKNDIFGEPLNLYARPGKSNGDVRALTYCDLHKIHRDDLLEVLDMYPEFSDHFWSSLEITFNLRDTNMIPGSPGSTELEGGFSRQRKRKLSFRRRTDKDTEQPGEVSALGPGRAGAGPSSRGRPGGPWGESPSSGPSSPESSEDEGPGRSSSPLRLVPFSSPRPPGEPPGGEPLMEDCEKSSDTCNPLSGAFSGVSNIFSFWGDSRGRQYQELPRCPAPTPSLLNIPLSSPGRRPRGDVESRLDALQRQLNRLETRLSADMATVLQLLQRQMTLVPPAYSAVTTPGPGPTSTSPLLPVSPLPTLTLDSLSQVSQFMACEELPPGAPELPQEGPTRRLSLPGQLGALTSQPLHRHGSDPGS
row,Compound,"hERG current change (%, negative = inhibition) at 10uM [%]"
1,CCOc1ccc(C(=O)NC(=S)Nc2cccnc2)cc1[N+](=O)[O-],-16.1
2,Cc1ccc(-c2nn(-c3ccccc3)cc2C2CC(c3cccs3)=NN2C(=O)CCCC(=O)O)cc1 (stereo not shown),4.96
3,Cc1ccccc1-n1c(-c2ccco2)nc2ccccc2c1=O,1.78
4,COC(=O)Cc1cc(=O)n(-c2nc3ccccc3s2)[nH]1,-0.387
5,C=CCNC(=S)NNC(=O)c1ccc(OCCC)cc1,11.7
6,COc1ccc(Cl)cc1C(=O)N/N=C/c1ccc(N2CCOCC2)cc1,10.6
7,Cc1cccc(OCCCC(=O)Nc2ccc(N(C)C)cc2)c1,-5.54
8,CCn1nc(C(=O)OCC(=O)c2ccc3c(c2)OCCO3)c2ccccc2c1=O,-0.922
9,O=C(CCC1CCN(Cc2ccc(C#CCCO)cc2)CC1)NC1CC1,-46.7
10,Cc1cc(C(F)(F)F)n2ncc(-c3cccc(Br)c3)c2n1,22.6
11,CC1(C)Oc2ccc(C(=O)NC3CC3)cc2N(CC(=O)N2CCOCC2)C1=O,9.27
12,CCOC(=O)c1c(C)[nH]c(C(=O)COC(=O)C2CC2C)c1C (stereo not shown),-2.21
13,CCOC(=O)N1CCN(C(=O)CN(C2CCCCC2)S(=O)(=O)c2ccc(C)cc2)CC1,-28.9
14,S=c1[nH]nc(COc2ccccc2)n1/N=C/c1ccc(Cl)c(Cl)c1,26.4
15,CS(=O)(=O)N1CCCC(C(=O)Nc2ccc3c(c2)OCCO3)C1 (stereo not shown),23.6
16,O=C(N/C(=C\c1ccco1)C(=O)N1CCCC1)c1ccccc1,1.23
17,O=C(NCCc1ccccc1)c1ccc(-c2ccc(F)cc2)o1,-9.42
18,Br.Cc1nc(C)c(-c2csc(Nc3cccc(O)c3)n2)s1,6.25
19,COCCCNCC(=O)c1c(N)n(Cc2ccccc2)c(=O)n(C)c1=O.O=C(O)C(=O)O,-20.1
20,COc1ccc(C2=NOC(C(=O)Nc3ccc(C)cc3)C2)cc1OC (stereo not shown),-8.68
21,COc1cc(C2CC(=O)Nc3c2c(=O)nc2c(C)cccn32)cc(OC)c1OC (stereo not shown),18.9
22,O=[N+]([O-])c1cccc(NC(=S)N2CCc3ccccc32)c1,-5.19
23,Cc1cc(-c2ccc(Cl)cc2)n2ncnc2n1,-6.99
24,Cn1ccnc1SCC(=O)c1ccc([N+](=O)[O-])cc1,-14.5
25,O=C(O)c1ccc(Cl)c(S(=O)(=O)N2CCC(Cc3ccccc3)CC2)c1,22.5
